This note sets out measurements from a collection of fitness landscapes (doi:10.1016/j.celrep.2020.107928).

In all, about 81,000 sequences were measured (“one-hybrid fitness for binding parS DNA”: median about -0.17, highest 2% from about 0.51 on). The list shows a part of the results.

B1: Caulobacter ParB omega fusion; a variant is named by its letters at X, in order, B8GW30 (parent)
chain: MESVVVGEPGMSEGRRGLGRGLSALLGEVDAAPAQAPGEQLGGSREAPIEILQRNPDQPRRTFREEDLEDLSNSIREKGVLQPILVRPSPDTAGEYQIVAGERAWRAAQRAGLKTVPIMVRELDDLAVLEIGIIENVQRADLNVLEEALSYKVLMEKFERTQENIAQTIGKSXSHVANXMRLLXLPDEVQSYLVSGELTAXHARAIAAAADPVALAKQIIEGGLSVRETEALARKAPNLSAGKSKGGRPPRVKDTDTQALESDLSSVLGLDVSIDHRGSTGTLTITYATLEQLDDLCNRLTRGI

In this test the parent is B1. The test can be described thus: one-hybrid fitness for binding parS DNA (scaled: cognate 1, non-cognate 0); higher = stronger binding. The following applies: with parS DNA site. An outline of the steps: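 In E. coli USO, a HIS3 reporter with its site placed 19 bp from the promoter was used to select Caulobacter ParB variants randomised at four specificity codons. Growth lasted 48 hours at 37°C on histidine-free M9 containing 0.1 mM IPTG and 5 mM 3-AT. Fitness was taken as the log change in variant-to-wild-type read ratio from Illumina sequencing of pre- and post-selection plasmids, rescaled between the non-cognate and cognate sites.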
With QHWA, the “one-hybrid fitness for binding parS DNA” value is at most 0.2.

Take ITGT: the “one-hybrid fitness for binding parS DNA” value was at most 0.2. Then CPKS, with at most 0.2.

Turning to SKKM, the “one-hybrid fitness for binding parS DNA” value is at most 0.2. With YTNH the figure was at most 0.2; with CTIN, at most 0.2; with GEDF, at most 0.2. Consider RHVE, for which the “one-hybrid fitness for binding parS DNA” value was at most 0.2. With APIN the figure was at most 0.2; with RKIL, at most 0.2; with WPTR, at most 0.2.

Consider RMPT, for which the “one-hybrid fitness for binding parS DNA” value stood at 0.625. As to HWPK, the “one-hybrid fitness for binding parS DNA” value was at most 0.2.

In the case of VNWT, the “one-hybrid fitness for binding parS DNA” value is at most 0.2. With AAYD the figure was at most 0.2. With FRAG, the “one-hybrid fitness for binding parS DNA” value is at most 0.2. Then KKSF, with at most 0.2; and TLEQ, with at most 0.2; and SAAY, with at most 0.2. Regarding NSGT, the “one-hybrid fitness for binding parS DNA” value is at most 0.2. With KCRS the figure was at most 0.2; with GPWT, at most 0.2. Then VERQ, with at most 0.2; and QFLF, with at most 0.2.

For RSTA, the “one-hybrid fitness for binding parS DNA” value was 0.578. With RIWF the figure was 0.282. Then HSIY, with at most 0.2; and RANR, with at most 0.2.

Consider TRNQ, for which the “one-hybrid fitness for binding parS DNA” value was at most 0.2. KQIS: the “one-hybrid fitness for binding parS DNA” value is at most 0.2. Turning to YGPM, the “one-hybrid fitness for binding parS DNA” value is at most 0.2. Then EYMV, with at most 0.2; and CNTA, with at most 0.2; and RYTC, with 0.903.

As to WTKT, the “one-hybrid fitness for binding parS DNA” value is at most 0.2. Take GLLK: the “one-hybrid fitness for binding parS DNA” value is at most 0.2.

For QPLG, the “one-hybrid fitness for binding parS DNA” value is at most 0.2. Then TKHK, with at most 0.2; and QHDR, with at most 0.2. Then VGWL, with at most 0.2; and RNSP, with at most 0.2; and TCHC, with at most 0.2. With YRKQ the figure was at most 0.2. With RAAS, the “one-hybrid fitness for binding parS DNA” value stood at 1.

With RKPE, the “one-hybrid fitness for binding parS DNA” value was at most 0.2. Then SDQC, with at most 0.2; and QSPQ, with at most 0.2; and VKRC, with at most 0.2.

Regarding WVIR, the “one-hybrid fitness for binding parS DNA” value was at most 0.2. Then QGAR, with at most 0.2; and KIYS, with at most 0.2; and AVAG, with at most 0.2. For QDYV, the “one-hybrid fitness for binding parS DNA” value was at most 0.2. As to LPQD, the “one-hybrid fitness for binding parS DNA” value was at most 0.2. Then RRCT, with 0.587; and SNSC, with at most 0.2; and MFPG, with at most 0.2. Then SIPY, with at most 0.2; and TVAV, with at most 0.2.

For SNYL, the “one-hybrid fitness for binding parS DNA” value was at most 0.2. Regarding LKMC, the “one-hybrid fitness for binding parS DNA” value was at most 0.2. With RADH the figure was at most 0.2; with PDKA, at most 0.2; with LTQG, at most 0.2. With TVPL the figure was at most 0.2. With RWGA, the “one-hybrid fitness for binding parS DNA” value worked out at 0.386. Then PGIR, with at most 0.2; and CKTW, with at most 0.2; and MMTI, with at most 0.2. With RIGM the figure was 0.268. With RHSM, the “one-hybrid fitness for binding parS DNA” value came out at 0.261. With AEHC the figure was at most 0.2; with ERCT, at most 0.2. With TYKH the figure was at most 0.2; with VVGC, at most 0.2. With PWRF the figure was at most 0.2; with NCHI, at most 0.2. As for CRQF, the “one-hybrid fitness for binding parS DNA” value is at most 0.2.

In the case of NHNG, the “one-hybrid fitness for binding parS DNA” value is at most 0.2. Then TTEA, with at most 0.2. Take KVCR: the “one-hybrid fitness for binding parS DNA” value was at most 0.2. Then ASRN, with at most 0.2; and LSKH, with at most 0.2.

On to GWNG, for which the “one-hybrid fitness for binding parS DNA” value is at most 0.2. Then KRQM, with at most 0.2; and YEGS, with at most 0.2. Consider QYDY, for which the “one-hybrid fitness for binding parS DNA” value is at most 0.2. With TTQS the figure was at most 0.2; with DETC, at most 0.2. Then TGMW, with at most 0.2; and HYYV, with at most 0.2. Then TLLE, with at most 0.2; and HQIG, with at most 0.2. On to PLKK, for which the “one-hybrid fitness for binding parS DNA” value is at most 0.2.

On to HYKN, for which the “one-hybrid fitness for binding parS DNA” value was at most 0.2. Then LKES, with at most 0.2; and QPVE, with at most 0.2.

As for TLFT, the “one-hybrid fitness for binding parS DNA” value was at most 0.2. As to TEKC, the “one-hybrid fitness for binding parS DNA” value was at most 0.2. Then TRMR, with at most 0.2. With NYFD, the “one-hybrid fitness for binding parS DNA” value was at most 0.2. Then DWES, with at most 0.2. On to QQFR, for which the “one-hybrid fitness for binding parS DNA” value is at most 0.2.

Regarding YAHF, the “one-hybrid fitness for binding parS DNA” value was at most 0.2. For the variant SGYY, the “one-hybrid fitness for binding parS DNA” value is at most 0.2. With PYKY the figure was at most 0.2. Regarding RHRI, the “one-hybrid fitness for binding parS DNA” value was at most 0.2. With RVFC the figure was 0.972; with MHQC, at most 0.2. Then DVGG, with at most 0.2; and TFAM, with at most 0.2. In the case of FANF, the “one-hybrid fitness for binding parS DNA” value is at most 0.2. With RSPE the figure was at most 0.2; with NVEC, at most 0.2. Then AARY, with at most 0.2; and MYTY, with at most 0.2; and MYKR, with at most 0.2.

Take AALD: the “one-hybrid fitness for binding parS DNA” value was at most 0.2.

As for PKRW, the “one-hybrid fitness for binding parS DNA” value was at most 0.2.

Turning to GVAT, the “one-hybrid fitness for binding parS DNA” value was at most 0.2.

Consider QSDV, for which the “one-hybrid fitness for binding parS DNA” value was at most 0.2. Then VDYY, with at most 0.2; and LNQR, with at most 0.2. As to CYLT, the “one-hybrid fitness for binding parS DNA” value was at most 0.2. With YMLR the figure was at most 0.2. GLHV: the “one-hybrid fitness for binding parS DNA” value was at most 0.2. Then RIRW, with 0.25; and RQNK, with at most 0.2; and HFET, with at most 0.2.

For PCGG, the “one-hybrid fitness for binding parS DNA” value is at most 0.2. Then HPHH, with at most 0.2. Then QHFS, with at most 0.2; and PTNW, with at most 0.2. With RQFP the figure was at most 0.2; with TQFG, at most 0.2. In the case of TVER, the “one-hybrid fitness for binding parS DNA” value was at most 0.2. Then SSKI, with at most 0.2; and YTSY, with at most 0.2; and TMQL, with at most 0.2. Then PSLF, with at most 0.2; and IVNY, with at most 0.2; and LYET, with at most 0.2. With LRKT the figure was at most 0.2; with RIQE, at most 0.2; with KTAR, at most 0.2. For the variant ITGR, the “one-hybrid fitness for binding parS DNA” value was at most 0.2.

Take TMYY: the “one-hybrid fitness for binding parS DNA” value is at most 0.2.

Regarding EFLC, the “one-hybrid fitness for binding parS DNA” value is at most 0.2. Then PFKY, with at most 0.2; and ALSQ, with at most 0.2; and YTCG, with at most 0.2. As for TDCF, the “one-hybrid fitness for binding parS DNA” value is at most 0.2.

On to VPAP, for which the “one-hybrid fitness for binding parS DNA” value was at most 0.2.
